Assay results reported in the supplement of paper PMC10185492.
This is one part of the list. These are enrichments in a pooled selection; single values are uncertain.

These substances were tested on SARS-CoV-2 3CLpro (nsp5) (assay: substrate phage enrichment score (protease-eluted vs HEPES control, +1 offset) (ratio); higher = better cleaved substrate). Conditions: selection round: 3; protease elution time: 0.5 h.
Description: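 Random heptapeptide substrate phage display (M13 pIII fusion, heptapeptide between an N-terminal biotinylated AviTag GLNDIFEAQKIEWHE and pIII; phages immobilised on streptavidin) eluted by cleavage with 50 nM protease in 20 mM HEPES at 37 °C. Selected phages were NGS sequenced, and the enrichment score is (reads in protease sample + 1)/(reads in HEPES blank-selection control + 1).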

Row | Substance | substrate phage enrichment score
1 | TWDGLLN | 10.5
2 | DRADWKH | 1.22
3 | SAAAQHH | 1.06
4 | AAAPHHH | 1.42
5 | TKCTGEC | 4.5
6 | PYNVRQT | > 21
7 | AMESPSS | > 23
8 | SCLNCRQ | > 23
9 | NPALGTR | > 23
10 | SWWQESS | > 25
11 | ERNVNCS | 30.2
12 | CSVLQSH | > 155
13 | RSPLHCY | 10
14 | ETEQNWT | 2.14
15 | VGPHIII | 2.7
16 | NTILQAD | > 30
17 | DKRTTDW | > 26
18 | AGLMCSP | 0.72
19 | RAHVPTE | 3.14
20 | RQYFQGG | 1.91
21 | CAHTTLQ | 18
22 | KPILQSS | > 29
23 | SQPKPKP | 1.5

Row | Substance | substrate phage enrichment score
24 | NTQVSRF | 0.75
25 | ELKSRQT | 2.6
26 | SAATHHH | 0.622
27 | VKTQASE | 5.67
28 | CEAAHHH | 0.901
29 | ICNSGNE | 1.76
30 | PMSKHWQ | 10.5
31 | QEFHTRA | > 24
32 | AGNGMPW | 0.238
33 | AHREEIP | 3
34 | QNGTKTT | > 40
35 | ICTMSAT | 0.729
36 | GKLQSAT | > 56
37 | CVHMQSG | > 28
38 | SNSCYEW | 6.5
39 | LNSSTPR | 4.2
40 | QPYFQGG | 1.88
41 | SRATMPG | > 30
42 | LSAAHHH | 0.817
43 | LGLVCRG | > 23
44 | TVAAHHH | 0.821
45 | VLQGRET | > 42
46 | LAEYRDR | 12.5

Row | Substance | substrate phage enrichment score
47 | EPAAHHH | 0.375
48 | SAAAHNH | 1.41
49 | KRDLNRL | 3.33
50 | VLLMHST | > 26
51 | EWRCVLQ | 154
52 | YYRPDWD | > 25
53 | AVKHRNR | 6.14
54 | CRSRRVS | 0.0714
55 | VSKTTLQ | > 29
56 | PTNEGLM | 6.17
57 | LTGNYGR | 1.92
58 | ASAHHHH | 1.06
59 | SHPQRLE | 2.87
60 | CEAKNRS | 2
61 | LQGISRQ | 4.75
62 | AAAAHHH | 1.33
63 | KRGTTPC | 1.5
64 | RHLELNS | 2.14
65 | KLETPCR | 2.33
66 | SNAAHHH | 1.18
67 | FSPQTSQ | > 37
68 | DCRLNEC | > 30
69 | AHEWREH | 0.462

Row | Substance | substrate phage enrichment score
70 | EKNTTLQ | 220
71 | SAAAHHK | 1.77
72 | LYLQGGS | 1.54
73 | TQAEDYR | 10
74 | SAAPHHH | 0.667
75 | VHGVKLQ | > 44
76 | AHRHYVG | 11
77 | RYPTYSR | 1.27
78 | ELSANTH | > 36
79 | SAWLQGD | > 22
80 | CEDTRNS | > 22
81 | VQNCRLI | 1.09
82 | NSLHPMR | > 22
83 | DLNSPAA | 0.556
84 | MWAPQHR | 5.8
85 | LGAAHHH | 0.917
86 | AQLSEHR | > 54
87 | NRIDAYG | 4.17
88 | VQDLSLI | 11
89 | AVLLQSR | > 82
90 | ANRQCVP | 4.18
91 | CGRTSSS | 0.961
92 | SHNVAPR | > 22

Row | Substance | substrate phage enrichment score
93 | PTAHHHH | 0.515
94 | LFEWHSP | 4.5
95 | TESKCYP | > 42
96 | PDAAHHH | 1.3
97 | CKSKSEN | 2.59
98 | ASQSNAR | 1.33
99 | RETELNS | > 22
100 | RYSPSTV | 0.846
101 | VGAVRGT | 2
102 | DVTTTWQ | > 21
103 | AHHHHHH | 1.28
104 | DHTVLQC | > 30
105 | VCSGNRF | 2.56
106 | RSARLHC | 5.5
107 | APAHHHH | 1.02
108 | MRSTSLQ | > 27
109 | TSRPCAG | 4.25
110 | QYAKDRE | 2.7
111 | HGSQHNG | 2.08
112 | ELFAYPQ | > 38
113 | NGVCMTH | > 33
114 | AAGTGEC | 9.33
115 | EFHSQAT | 9

Row | Substance | substrate phage enrichment score
116 | QSSCGQG | 3.38
117 | SKISGCR | > 21
118 | TNRALIT | 2.33
119 | STTAHHH | 0.917
120 | SERPLSG | 1.2
121 | QRSTCPK | 1.56
122 | RAAAHQH | 1.19
123 | TYEPTPY | 3.33
124 | PTTKADP | > 25
125 | GVAAHHH | 0.769
126 | CAAAHHN | 0.857
127 | NAQESRL | 0.769
128 | TYHLTDQ | 1.8
129 | KNHTTKQ | > 24
130 | CREPIYR | 3.29
131 | VTKLRLP | 0.1
132 | CPKGELT | 4.33
133 | QARLQAC | > 22
134 | RRTILHA | 36
135 | TKAQEKA | 16
136 | EQPHTME | 1.08
137 | VNKAGIS | > 34
138 | VRTEDAW | > 21

Row | Substance | substrate phage enrichment score
139 | SAVWSPG | 2.7
140 | PTEMSNQ | > 21
141 | IEAAHHH | 1.26
142 | RLYFQGG | 0.923
143 | MQSHNQL | > 40
144 | EPSFQGG | 2.83
145 | SKAAHHH | 0.865
146 | SENQSMR | 13.5
147 | NLNAHLQ | > 26
148 | DQKQGAR | 2.62
149 | DRGCILN | 20.5
150 | RERQFCD | 2.38
151 | TTGVSRQ | > 32
152 | MTPGSQY | 10
153 | AASIILQ | > 35
154 | KSHLQPH | 2.1
155 | TATAHPQ | > 24
156 | AHNYSPR | 5.33
157 | RRCVARS | 1.41
158 | TQCKYVG | 2.36
159 | SAVAHHH | 0.931
160 | PCCSRLQ | > 78
161 | NRAEDAW | 0.917

Row | Substance | substrate phage enrichment score
162 | RADAASQ | 2.83
163 | SQGKSNL | 1.55
164 | IPAAHHH | 1.26
165 | PRDTRDS | > 30
166 | NSYTELQ | > 35
167 | SGDLKPA | 2.25
168 | NFQGGSA | 1.24
169 | LQRAERR | > 33
170 | SVWNTQL | 5.25
171 | RYETSTG | 1.3
172 | YEAAHHH | 1.13
173 | QAMGSKS | > 33
174 | GAPAHHH | 1.78
175 | LTQVNQR | 4.33
176 | LYVQGGS | 1.18
177 | SGGSAAA | 0.409
178 | LRGCSLR | > 28
179 | QPYHIDR | 6.75
180 | APLPVLQ | 13
181 | RATTKLQ | > 94
182 | RNHSTKS | 3.17
183 | HLEQPFN | 6.75
